Experiment in all cases: Viability of human cancer cell lines after 72 h of drug (GDSC screen)
Compound in one experiment: S=C(NCc1ccc2c(c1)OCO2)N1CCN(c2ncnc3c2oc2ccccc23)CC1 [MP470]
The settings on record: top dose 20 µM; top dose inferred. The protocol:
(§1)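 Human cancer cell lines in 384-well plates, medium with 10% serum, drug for 72 h over a 256-fold dose range (nine 2-fold or five 4-fold steps up to the top dose). Adherent lines were fixed and stained with the nucleic acid dye Syto60, suspension lines read with resazurin; signal relative to control wells, capped at 0 and 100%. One two-parameter sigmoid per drug and line, fitted in a mixed model over all curves with the slope shared within a line.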

Compound in another experiment: CC(C)c1ccccc1Cc1cc(C(=O)Nc2ccc(S(=O)(=O)c3ccccc3C(C)(C)C)cc2)c(O)c(O)c1O [TW-37]
The settings on record: top dose 5 µM. The protocol: as §1

Compound in the next experiment: CCNC(=O)c1noc(-c2cc(C(C)C)c(O)cc2O)c1-c1ccc(CN2CCOCC2)cc1 [AUY922]
Conditions: top dose 0.256 µM; top dose inferred. The method, then: as §1

Compound in the next experiment: Nc1ccn([C@@H]2O[C@H](CO)[C@@H](O)C2(F)F)c(=O)n1 [Gemcitabine]
Conditions: top dose 1.024 µM. The protocol:
as §1

Compound in the next experiment: CC(O)(CS(=O)(=O)c1ccc(F)cc1)C(=O)Nc1ccc(C#N)c(C(F)(F)F)c1 [Bicalutamide]
Conditions: top dose inferred. The method, then:
as §1

Compound in another experiment: Cc1ccc(Nc2cc(-c3cccc(N4C(=O)c5ccccc5C4=O)c3)ncn2)cc1NS(C)(=O)=O [KIN001-270]
Conditions: top dose 20 µM; top dose inferred. The method, then:
as §1

Compound in a further experiment: O=S(=O)(c1ccccc1)N(CC(F)(F)F)c1ccc(C(O)(C(F)(F)F)C(F)(F)F)cc1 [T0901317]
Conditions: top dose 10.24 µM; top dose inferred. The protocol:
as §1

Compound in another experiment: Cc1cn(-c2cc(NC(=O)c3ccc(C)c(Nc4nccc(-c5cccnc5)n4)c3)cc(C(F)(F)F)c2)cn1 [Nilotinib]
The settings on record: top dose 2 µM. The method, then: as §1

Compound in a further experiment: C/C(O)=C(\C#N)C(=O)Nc1cc(Br)ccc1Br [LFM-A13]
Conditions: top dose 16 µM; top dose inferred. The protocol:
as §1

Compound in the next experiment: NC(=O)c1cccc(-c2cc(Nc3ccc(OC(F)(F)F)cc3)ncn2)c1 [GNF-2]
The settings on record: top dose 1.28 µM; top dose inferred. The protocol:
as §1

Setting [1] is: top dose 1.024 µM, screen: GDSC drug entry 150.
Setting [2] is: top dose 10 µM, screen: GDSC drug entry 1502.

By IC50 is meant the dose at which the fit gives 50% viability; where the fit passes the top or lowest dose, that dose stands as a limit. AUC, from the same fit, is the share of area under the viability curve across the 256-fold dose range: 1 means no effect, lower means more sensitive. For some assays here: The top dose, if marked as inferred, is not printed in the source and was worked back from the curve model. For some assays here: Where an entry number is given, a second screen of the drug exists; the two often differ.

The IC50 is the concentration that inhibits the measured activity by half. YT (lymphoid neoplasm, suspension): the AUC with MP470 is 0.932; with TW-37, 0.576; with AUY922, 0.462; with Gemcitabine, 0.892; with Bicalutamide (setting [1]) it was 0.991; in the experiment with Bicalutamide (setting [2]), 0.987. In addition, the AUC with KIN001-270 is 0.894; in the experiment with T0901317, 0.971; with Nilotinib, 0.911; in the experiment with LFM-A13 it was 0.983; in the experiment with GNF-2 it was 0.958. Also, the IC50 in the experiment with MP470 is > 20000 nM; with TW-37, 488 nM; with AUY922 it was 12.8 nM; with Gemcitabine, 884 nM; with Bicalutamide (setting [1]), > 1020 nM; in the experiment with Bicalutamide (setting [2]), > 10000 nM. The IC50 was 17600 nM with KIN001-270; > 10200 nM in the experiment with T0901317; > 2000 nM with Nilotinib; > 16000 nM in the experiment with LFM-A13; > 1280 nM in the experiment with GNF-2.

For NCI-SNU-5 (stomach, suspension), the AUC was found to be 0.935 in the experiment with MP470; 0.658 with TW-37; 0.776 with AUY922; 0.537 in the experiment with Gemcitabine; 0.989 with Bicalutamide (setting [1]); 0.978 with Bicalutamide (setting [2]). Moreover, the AUC in the experiment with KIN001-270 came out at 0.989; in the experiment with T0901317 it was 0.983; with Nilotinib it was 0.986; with LFM-A13 it was 0.989; in the experiment with GNF-2 it was 0.989. Also, the half-inhibitory concentration (IC50) in the experiment with MP470 was > 20000 nM; with TW-37, 866 nM; in the experiment with AUY922, 103 nM; with Gemcitabine, 80.9 nM; with Bicalutamide (setting [1]), > 1020 nM; in the experiment with Bicalutamide (setting [2]) it was > 10000 nM. For the same cell line, the IC50 in the experiment with KIN001-270 was > 20000 nM; in the experiment with T0901317, > 10200 nM; in the experiment with Nilotinib, > 2000 nM; with LFM-A13, > 16000 nM; in the experiment with GNF-2, > 1280 nM.

Turning to KM-H2 (Hodgkin lymphoma, suspension), the AUC with MP470 stood at 0.955; in the experiment with TW-37, 0.842; with AUY922 it was 0.734; with Gemcitabine, 0.393; with Bicalutamide (setting [1]), 0.993; with Bicalutamide (setting [2]), 0.985. In addition, the AUC in the experiment with KIN001-270 turned out to be 0.987; in the experiment with T0901317 it was 0.976; in the experiment with Nilotinib it was 0.992; with LFM-A13 it was 0.991; with GNF-2 it was 0.992. Besides, the IC50 with MP470 is > 20000 nM; with TW-37, 2760 nM; with AUY922, 65.4 nM; with Gemcitabine, 34.1 nM; with Bicalutamide (setting [1]), > 1020 nM; with Bicalutamide (setting [2]), > 10000 nM. Moreover, the IC50 in the experiment with KIN001-270 was > 20000 nM; with T0901317 it was > 10200 nM; with Nilotinib, > 2000 nM; with LFM-A13 it was > 16000 nM; with GNF-2, > 1280 nM.

As to KGN (ovary, adherent), the AUC with MP470 was determined as 0.836; in the experiment with TW-37 it was 0.552; in the experiment with AUY922 it was 0.393; in the experiment with Gemcitabine, 0.04; in the experiment with Bicalutamide (setting [1]), 0.978; with Bicalutamide (setting [2]), 0.964. Besides, the AUC is 0.92 with KIN001-270; 0.981 with T0901317; 0.981 with Nilotinib; 0.944 in the experiment with LFM-A13; 0.979 with GNF-2. Further, the IC50 in the experiment with MP470 was 17500 nM; in the experiment with TW-37, 448 nM; in the experiment with AUY922, 7.62 nM; with Gemcitabine, < 4 nM; in the experiment with Bicalutamide (setting [1]), > 1020 nM; with Bicalutamide (setting [2]) it was > 10000 nM. Moreover, the IC50 with KIN001-270 is > 20000 nM; with T0901317 it was > 10200 nM; in the experiment with Nilotinib, > 2000 nM; in the experiment with LFM-A13 it was > 16000 nM; with GNF-2, > 1280 nM.

For GT3TKB (stomach, adherent), the AUC with MP470 amounted to 0.888; in the experiment with TW-37, 0.515; with AUY922, 0.449; in the experiment with Gemcitabine, 0.258; with Bicalutamide (setting [1]), 0.99; in the experiment with Bicalutamide (setting [2]) it was 0.971. Moreover, the AUC in the experiment with KIN001-270 stood at 0.983; in the experiment with T0901317 it was 0.981; in the experiment with Nilotinib, 0.98; with LFM-A13, 0.982; with GNF-2 it was 0.966. Besides, the IC50 in the experiment with MP470 was 18000 nM; with TW-37 it was 341 nM; with AUY922, 11.8 nM; with Gemcitabine, 14.4 nM; with Bicalutamide (setting [1]) it was > 1020 nM; with Bicalutamide (setting [2]), > 10000 nM. Besides, the IC50 with KIN001-270 was > 20000 nM; in the experiment with T0901317 it was > 10200 nM; in the experiment with Nilotinib it was > 2000 nM; in the experiment with LFM-A13 it was > 16000 nM; with GNF-2, > 1280 nM.

Values taken from the supplement of paper PMC4967469.
